{"source": "the supplement of paper PMC11417369", "note": "The other results are listed elsewhere or left out.", "data": [{"test_system": "PfAP2-HC AP2 domain (GST-tagged)", "experiment": "gcPBM binding intensity (ln(normalized median fluorescence intensity)); higher = stronger DNA binding", "in_short": "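Each value is the highest Masliner-normalised natural-log median intensity across replicate spots of either orientation of a probe. The probes were primer-extended double-stranded 36-bp intergenic genomic sequences on an Agilent 4 × 180k array, alongside negative controls, exposed for 1 h to GST-tagged P. falciparum DNA-binding domains expressed in E. coli. Bound protein was picked up with Alexa488 anti-GST antibody and scanned at 488 nm.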", "values": [{"sequence": "ATACATATATGCTTCTGTACACATAATTTATAAAAA [XGTACX_site7000]", "gcPBM binding intensity (ln)": 9.5}, {"sequence": "ACATACACATATACATGTACATATATATATATATAT [XGTACX_site5082]", "gcPBM binding intensity (ln)": 9.99}, {"sequence": "CTATTTCAATTTAGTGCACACATTTTAATTTATAAG [CACACA_site2040]", "gcPBM binding intensity (ln)": 9.74}, {"sequence": "CATTATTATTAACATACACACGTGTTAAATACACCC [CACACA_site6118]", "gcPBM binding intensity (ln)": 9.85}, {"sequence": "TATGAAAAGATATATACACACATAATAAAGGTATAT [CACACA_site7713]", "gcPBM binding intensity (ln)": 10.1}, {"sequence": "ATTAAAACAAAATGTACACACATATCATTTAATGAC [CACACA_site6543]", "gcPBM binding intensity (ln)": 9.9}, {"sequence": "TTTTAATCTTAATTATGTACATATAAAATGTGTATA [XGTACX_site7382]", "gcPBM binding intensity (ln)": 9.61}, {"sequence": "TATAATGAGAAGATATAATATATAGGGGGTAATTCT [GTGCAC_negctrl_site228]", "gcPBM binding intensity (ln)": 10.1}, {"sequence": "TTTTTTTCATAAGAAGCACACAAAAAATGATAGAGA [CACACA_site8401]", "gcPBM binding intensity (ln)": 9.64}, {"sequence": "ATATATATATATATATGTACTTATTTGTATAAATAC [XGTACX_site8031]", "gcPBM binding intensity (ln)": 9.77}, {"sequence": "TAGATTTTTATGCGTGCACACATTTAAAAAAAAAAC [CACACA_site3421]", "gcPBM binding intensity (ln)": 9.98}, {"sequence": "ATACCTACATACATACGTACATATATATATATAATG [XGTACX_site234]", "gcPBM binding intensity (ln)": 9.75}, {"sequence": "TTTTAATAAATTCAAAACATAAAAAGGAAAAAAAAA [XGTACX_negctrl_site471]", "gcPBM binding intensity (ln)": 9.44}, {"sequence": "AAATATAATAACATAACACACACATGTATTTATAGG [CACACA_site8009]", "gcPBM binding intensity (ln)": 10}, {"sequence": "TATTGGAAAATTAGAAGTACTTTCATATATTAGACT [XGTACX_site4503]", "gcPBM binding intensity (ln)": 9.49}, {"sequence": "TTTTTATTATTCCATAGTACAGAAAAAATGATATAT [XGTACX_site3431]", "gcPBM binding intensity (ln)": 9.2}, {"sequence": "ATTCTTTATTATTCGCCACACACATATATATATATA [CACACA_site9009]", "gcPBM binding intensity (ln)": 10.1}, {"sequence": "TGTAGTCTGGAGAAAAGTACACAGTATCTGGTAACC [XGTACX_site2033]", "gcPBM binding intensity (ln)": 9.62}, {"sequence": "ATATAGAATAAAACTATACACACCTATATTTAAACA [CACACA_site1902]", "gcPBM binding intensity (ln)": 10.1}, {"sequence": "ATATAAAAAAATAATAAATAAATAAAAAGATTTCTT [XGTACX_negctrl_site110]", "gcPBM binding intensity (ln)": 9.65}, {"sequence": "CTTGTATAGAAACACACACACACTTTCTTTTTTTAA [CACACA_site1964]", "gcPBM binding intensity (ln)": 10.2}, {"sequence": "TATATTAATAAAGGTACTACACGGAAATGGAAATAT [XGTACX_site7760]", "gcPBM binding intensity (ln)": 9.86}, {"sequence": "ATATTTTCCCTTGTTTTACACACGTGCTGATATGAG [CACACA_site8672]", "gcPBM binding intensity (ln)": 10.1}, {"sequence": "AATTTGAAATATGTGGTGCAGTTATATAATATGTTT [GTGCAC_site9885]", "gcPBM binding intensity (ln)": 9.92}, {"sequence": "TAATAAATAAATGACACACACACACGCAAAAAAAAA [CACACA_site7275]", "gcPBM binding intensity (ln)": 10.6}, {"sequence": "AACAAATACGAACACACACACACACTAAAAAAAAAA [CACACA_site6386]", "gcPBM binding intensity (ln)": 10.8}, {"sequence": "AGGATATAATACCATACACACATTTATAAAATAACA [CACACA_site1930]", "gcPBM binding intensity (ln)": 9.91}, {"sequence": "ATATATATTATATATATATATATATATATATATATA [CACACA_negctrl_site493]", "gcPBM binding intensity (ln)": 9.33}, {"sequence": "CACATTAATTTTTGGGTGCACTTGGGAAATTTTGGT", "gcPBM binding intensity (ln)": 9.48}, {"sequence": "ATAATATGAAAACACACACACACACCCAAAAAAAAA [CACACA_site2011]", "gcPBM binding intensity (ln)": 10.6}, {"sequence": "TGTAATCAAAAAAATAGTACATAAATTGTGTATACT [XGTACX_site5908]", "gcPBM binding intensity (ln)": 9.7}, {"sequence": "ATTTTAGAATAAATTTTTTACATTAAAAAACTATTT [CACACA_negctrl_site1414]", "gcPBM binding intensity (ln)": 9.5}, {"sequence": "ACTCTCTTATATTAAACACACATATTTATAGGTATA [CACACA_site7302]", "gcPBM binding intensity (ln)": 9.78}, {"sequence": "GTATCAAAAGAATACACACACACATACATATATATA [CACACA_site3796]", "gcPBM binding intensity (ln)": 11.3}, {"sequence": "CATACAATAAATATGGTGCATTTTATGTAACCGTTT [GTGCAC_site9420]", "gcPBM binding intensity (ln)": 9.67}, {"sequence": "AAGGATATAACATACACACACACACGGATATAAATA [CACACA_site7867]", "gcPBM binding intensity (ln)": 11}, {"sequence": "TGAACATATTAAAATTGTACATATGCACAATATGTA [XGTACX_site6801]", "gcPBM binding intensity (ln)": 9.53}, {"sequence": "TATTTTATCATTTGCACACGCACACCGACATAAAAA [CACACA_site4348]", "gcPBM binding intensity (ln)": 9.97}, {"sequence": "CATCTAAATTGTAGTTGTACACCTTAATCTTATTAC [XGTACX_site7547]", "gcPBM binding intensity (ln)": 9.89}, {"sequence": "ATAAAAATATGATCAACACACGATTAAATATTCATA [CACACA_site1495]", "gcPBM binding intensity (ln)": 9.83}, {"sequence": "TGAAAAATAAATAAATGTACATATATATATATATAC [XGTACX_site7310]", "gcPBM binding intensity (ln)": 9.72}, {"sequence": "AGAAATACAAAATAAATATAAGAAACAAAATATTTA [CACACA_negctrl_site780]", "gcPBM binding intensity (ln)": 9.83}, {"sequence": "AAAAGGTTATCAATATGTACATATTTTTTTATTTTT [XGTACX_site3277]", "gcPBM binding intensity (ln)": 9.78}, {"sequence": "TTTTAATTAAAACACACACACACATATATATATATA [CACACA_site2291]", "gcPBM binding intensity (ln)": 10.6}]}]}
